Reference: PubChem BioAssay AID463173 (ICCB-Longwood Screening Facility, Harvard Medical School, 2010)
Among all 52,000 compounds or so, about 4,300 (8.3%) were called active. Rule as the data show it: active = survival mostly below about 52% (no sharp cut-off); inactive = mostly above about 56%. Some of the results follow.

Tested on: DeltatarO mutant
Assay: S. aureus survival, RN4220 and DeltatarO strains – OD600, teichoic acid synthesis inhibitors, primary screen (AID 463173)
Details: S. aureus RN4220 wild type/DeltatarO growth, OD600, 18 h, hits give low values, screened at 18.75 µg/mL (by protocol)

Structure (SMILES) | survival
Cc1ccc2c(c1)c(=O)c(C(=O)c1ccccc1)cn2Cc1ccccc1F | inactive: 77%
COc1ccc(NC(=O)CC2C(=O)N(c3ccccc3)C(=O)N2CCC2=CCCCC2)cc1 (stereo unspecified) | inactive: 51%
COc1ccc(S(=O)(=O)N(CC(=O)Nc2ccc(OC)cc2OC)c2ccc(Cl)cc2)cc1 | inactive: 126%
COc1cc(NC(=O)C2CCN(S(=O)(=O)c3c(C)noc3/C=C/c3cccs3)CC2)cc(OC)c1 | inactive: 54%
CCN1C(=O)c2ccccc2S(=O)c2ccc(C(=O)NCc3ccc(C)cc3)cc21 (stereo unspecified) | inactive: 58%
CSc1nnc(Cc2ccccc2)n1-c1ccc(C)cc1 | inactive: 78%
COC(=O)c1ccc(C2C=C(c3ccc(Cl)cc3)Nc3nc4ccccc4n32)cc1 (stereo unspecified) | inactive: 86%
O=C(CSc1nc(-c2ccc(F)cc2)nc2c1Cc1ccccc1O2)Nc1cccc(C(=O)O)c1 | inactive: 63%
CCOc1ccccc1-c1noc(CCCC(=O)Nc2cccc(C(F)(F)F)c2)n1 | inactive: 61%
N#Cc1cccc(NC(=O)C2CCN(c3cnccn3)CC2)c1 | inactive: 89%
O/N=C/c1cn(-c2ccccc2)nc1-c1ccccc1 | inactive: 73%
CCOc1ccc(NC(=O)CC2C(=O)N(c3ccc(C)cc3)C(=O)N2C2CCCCC2)cc1 (stereo unspecified) | inactive: 64%
O=C(NC1(C(F)(F)F)N=C(c2ccccc2)N(C2CCCCC2)C1=O)c1ccc(F)cc1 (stereo unspecified) | inactive: 80%
Cc1cc(C)n(CCc2nc3c4ccccc4nc(SCc4ccc(Cl)cc4)n3n2)n1 | inactive: 71%
Cn1ccc2cc(S(=O)(=O)N3CCCC(C(=O)NCc4ccc(F)cc4)C3)ccc21 (stereo unspecified) | inactive: 63%
CC1Cc2ccccc2N1C(=O)c1nc2ccccc2s1 (stereo unspecified) | inactive: 89%
Cc1ccc(C)c(NC(=O)Cn2c(=O)n(-c3ccccc3C)c(=O)c3c2c2cc(C)ccc2n3C)c1 | inactive: 90%
Cc1ccc(C(C)C)c(OCC(=O)NCC2(N3CCOCC3)CCCCC2)c1 | inactive: 48%
Cc1cccc(C(=O)Nc2cccc(OCc3cc(=O)n4cc(C)sc4n3)c2)c1 | inactive: 75%

Structure (SMILES) | survival
Cc1ccc(-n2cc3c(c2-c2ccccc2Br)c(=O)n(C)c(=O)n3C)cc1N | inactive: 76%
CC(=O)Nc1c(O)c2ccccc2[nH]c1=O | inactive: 77%
Cc1ccc(C(=O)NCC(=O)OCc2cc(=O)n3c(C)csc3n2)cc1 | inactive: 95%
CCc1cc2c(cc3c(=O)n(CC(=O)NC4CCCCC4)nc(CC)n32)s1 | inactive: 93%
Cc1cn(C)c(CC(=O)N2CCN(c3cccc(C(F)(F)F)c3)CC2)c1C(=O)O | inactive: 126%
CCOC(=O)CCN(c1ccccc1)S(=O)(=O)c1cc(-c2cc(C)no2)ccc1C | inactive: 84%
Cc1cc(C)c2oc(C(=O)Nc3c(C)n(C)n(-c4ccccc4)c3=O)cc(=O)c2c1 | inactive: 65%
O=C(NCC(c1cccnc1)N1CCc2ccccc21)c1ccc(F)c(F)c1 (stereo unspecified) | inactive: 52%
CC(=O)N1CCc2c(sc3c2c(=O)n(-c2ccccc2C)c(=O)n3CC(=O)c2ccccc2)C1 | inactive: 112%
COc1ccccc1C(=O)Nc1c(C(=O)N2CCN(c3ccc(F)cc3)CC2)oc2ccccc12 | active: 0%
COc1ccc(/C=N/O)cc1COc1ccc(NC(C)=O)cc1 | inactive: 70%
COc1ccc(-c2cc(-c3ccccc3)c(C#N)c(SCC(O)CS(=O)(=O)Cc3ccccc3)n2)cc1 (stereo unspecified) | inactive: 74%
Cc1ccc2cc(CN(Cc3cccs3)Cc3nnnn3C(C)(C)C)c3nnnn3c2c1 | inactive: 56%
Cc1ccc2c(=O)cc(C(=O)N(Cc3ccccc3Cl)C3CCS(=O)(=O)C3)oc2c1 (stereo unspecified) | inactive: 118%
COc1ccc(S(=O)(=O)N2CCN(C(c3ccc(OC)c(OC)c3)c3nnnn3C3CCCCC3)CC2)cc1 (stereo unspecified) | inactive: 100%
CC(O)CNC(=O)C(=O)Nc1c2c(nn1-c1ccc(Cl)cc1)CSC2 (stereo unspecified) | inactive: 64%
CCOc1ccc(CCNC(=O)CS(=O)(=O)Cc2nc(-c3cccc(Cl)c3)oc2C)cc1 | inactive: 72%
COc1ccc(NC(=O)C2CCCN(C(=O)c3cnn(-c4ccccc4)c3-n3cccc3)C2)cc1 (stereo unspecified) | inactive: 70%
COc1ccc(-c2noc(C3CCCN(C(=O)c4ccccc4)C3)n2)cc1 (stereo unspecified) | inactive: 94%

Structure (SMILES) | survival
COc1ccccc1-c1nc2c(c(SCC(=O)Nc3ccccc3F)n1)Cc1c(CO)cnc(C)c1O2 | inactive: 88%
COc1ccccc1N1CCN(CCCNC(=O)c2nnc(Cc3c(F)cccc3Cl)o2)CC1 | inactive: 87%
O=S(=O)(NCCc1ccccc1)c1cccc(S(=O)(=O)N2CCOCC2)c1 | inactive: 80%
Cc1ccnc(N2CCC(C(=O)NCCC(C)C)CC2)n1 | inactive: 102%
Cc1ccc(NC(=O)C2CCCN2S(=O)(=O)c2cccc3cccnc23)cc1 (stereo unspecified) | inactive: 66%
Cc1cc(C)n2nc(CNS(=O)(=O)c3ccc(Cl)cc3)nc2n1 | inactive: 78%
CC1CN(C(=O)N2CCC(C(=O)NC3CCCCCC3)CC2)c2cc(Cl)ccc2O1 (stereo unspecified) | inactive: 61%
O=C(Cn1cc(SCc2cccc(Cl)c2)c2ccccc21)N1CCOCC1 | inactive: 79%
O=c1[nH]c(SCc2ccc(F)cc2)nc2c1CCCC2 | active: 63%
COc1cc(C(=O)NC2CC(=O)N(c3cccc(F)c3)C2)cc(OC)c1OC (stereo unspecified) | inactive: 80%
CCOc1ccc(CNC(=O)c2cc3c(=O)n(C)c4ccccc4c3s2)cc1 | inactive: 72%
NC1=NC(=O)CC(C(=O)Nc2ccccc2)S1 (stereo unspecified) | inactive: 82%
O=C(c1ccc2c(c1)OCCO2)N(Cc1cccnc1)c1nc2ccc(F)cc2s1 | inactive: 73%
Cc1ccc(NC(=O)Cn2c(=O)n(Cc3ccco3)c(=O)c3ccccc32)cc1 | inactive: 78%
CCN(CC)CCCNC(=O)c1cc(-c2ccc(OC)c(OC)c2)on1 | inactive: 71%
COc1ccc2c(c1)NC(c1ccc(OCC(C)C)cc1)=NC(c1ccncc1)=N2 | inactive: 119%
COc1ccc2c(c1)CC(C(=O)N1CCC(C(N)=O)CC1)CO2 (stereo unspecified) | inactive: 89%
COc1ccccc1N1CCN(C(=O)c2oc3ccccc3c2NC(=O)C(C)Oc2ccccc2)CC1 (stereo unspecified) | inactive: 69%
